According to the supplement of paper PMC4967469:
Lines with a small IC50 respond at low doses; a limit (>, <) means that the fit lies beyond the doses tested. AUC is the area under the same curve over the 256-fold range up to the top dose, as a fraction; values near 1 show little effect. A top dose marked as inferred is not printed in the source and was worked back from the curve model.

Key:
Assay in all cases: Viability of human cancer cell lines after 72 h of drug (GDSC screen)
KIN001-266 = compound: CCN1CCC(n2cc(CNc3cc(Cl)c4ncc(C#N)c(Nc5ccc(F)c(Cl)c5)c4c3)nn2)CC1 [KIN001-266]; conditions: top dose 20 µM; top dose inferred
Procedure: (§1)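 Human cancer cell lines in 384-well plates, medium with 10% serum, drug for 72 h over a 256-fold dose range (nine 2-fold or five 4-fold steps up to the top dose). Adherent lines were fixed and stained with the nucleic acid dye Syto60, suspension lines read with resazurin; signal relative to control wells, capped at 0 and 100%. One two-parameter sigmoid per drug and line, fitted in a mixed model over all curves with the slope shared within a line.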

CCT007093 = compound: O=C1/C(=C/c2cccs2)CC/C1=C\c1cccs1 [CCT007093]; conditions: top dose 6.6 µM; top dose inferred
Procedure: as §1

QL-XII-47 = compound: C=CC(=O)N1CCc2ccc(-n3c(=O)ccc4cnc5ccc(-c6cnn(C)c6)cc5c43)cc21 [QL-XII-47]; conditions: top dose 10.24 µM; top dose inferred
Procedure: as §1

BAY 61-3606 = compound: COc1ccc(-c2cc3nccn3c(Nc3ncccc3C(N)=O)n2)cc1OC [BAY 61-3606]; conditions: top dose 8 µM; top dose inferred
Procedure: as §1

Cell Line	AUC (KIN001-266)	IC50 (KIN001-266)	AUC (CCT007093)	IC50 (CCT007093)	AUC (QL-XII-47)	IC50 (QL-XII-47)	AUC (BAY 61-3606)	IC50 (BAY 61-3606)
TGW (neuroblastoma, adherent)	0.831	10.3 µM	0.992	> 6.6 µM	0.672	1.78 µM	0.921	> 8 µM
HCC1419 (breast, adherent)	0.977	> 20 µM	0.964	> 6.6 µM	0.844	> 10.2 µM	0.968	> 8 µM
NCI-H187 (small cell lung carcinoma, suspension)	0.89	> 20 µM	0.988	> 6.6 µM	0.758	3.83 µM	0.976	> 8 µM
NCI-H1395 (lung adenocarcinoma, adherent)	0.865	> 20 µM	0.918	> 6.6 µM	0.893	> 10.2 µM	0.954	> 8 µM
MFH-ino (soft tissue, adherent)	0.909	> 20 µM	0.982	> 6.6 µM	0.802	6.12 µM	0.893	> 8 µM
L-540 (Hodgkin lymphoma, suspension)	0.867	14.8 µM	0.99	> 6.6 µM	0.839	5.89 µM	0.922	> 8 µM
23132-87 (stomach, adherent)	0.862	18.1 µM	0.982	> 6.6 µM	0.933	> 10.2 µM	0.918	> 8 µM
NCI-H196 (small cell lung carcinoma, adherent)	0.979	> 20 µM	0.984	> 6.6 µM	0.764	3.89 µM	0.942	> 8 µM
NCI-H23 (lung adenocarcinoma, adherent)	0.955	> 20 µM	0.984	> 6.6 µM	0.792	4.59 µM	0.963	> 8 µM
COR-L95 (small cell lung carcinoma, adherent)	0.935	> 20 µM	0.987	> 6.6 µM	0.52	0.732 µM	0.934	> 8 µM
SKN-3 (head and neck, adherent)	0.87	> 20 µM	0.905	> 6.6 µM	0.816	7.03 µM	0.896	> 8 µM
LB2518-MEL (melanoma, adherent)	0.962	> 20 µM	0.987	> 6.6 µM	0.987	> 10.2 µM	0.907	> 8 µM
EM-2 (chronic myeloid leukaemia, suspension)	0.868	> 20 µM	0.982	> 6.6 µM	0.65	1.76 µM	0.884	> 8 µM
EFM-19 (breast, adherent)	0.783	13.6 µM	0.975	> 6.6 µM	0.499	0.633 µM	0.961	> 8 µM
NCI-H647 (non-small cell lung carcinoma, adherent)	0.845	15.5 µM	0.968	> 6.6 µM	0.457	0.486 µM	0.88	> 8 µM
